Patent US12528793B2 (priority 2019, dated 2026)
“And” between values parts separate entries of the source, which are not always exact repeats. Equal values may be shown once. Read-outs that look alike come from different tables or passages of the source.

Columns and labels:
F-ATP synthase [1] = type: biochemical; conditions: read-out: IC50 of ATP synthesis inhibition in M. bovis BCG IMVs, FIG. 2C
F-ATP synthase [2] = molecular target: F-ATP synthase (Mycolicibacterium smegmatis, UniProt A0R1Z9+A0R200+A0R201+A0R202); experiment: biochemical
F-ATP synthase [3] = conditions: M. smegmatis IMVs; for ATP synthesis inhibition in combination with BDQ (Formula (VII)): FIG. 5; for ATP synthesis inhibition in combination with racemate of Formula (VI) (BDQ1): FIG. 4
[4] = IC50 for ATP synthesis inhibition (M. smeg., μM), M. smegmatis IMVs

## CCNc1cc(C)nc(Nc2ccc3nc(-c4ccc(Cl)cc4)[nH]c3c2)n1 [Formula (II), N^2-(2-(4-Chlorophenyl)-1H-benzo[d]imidazol-5-yl)-N^4-ethyl-6-methylpyrimidine-2,4-diamine]
F-ATP synthase [1]
  IC50: 8.7 nM
F-ATP synthase [2]; IC50 of ATP synthesis inhibition in M. smegmatis IMVs, FIG. 2B
  IC50: 0.09 µM and ~0.09 µM
F-ATP synthase [3]; (II) added concentration dependently to 300 nM BDQ
  ATP synthesis inhibition in combination with BDQ (Formula (VII)): almost full inhibition
F-ATP synthase [3]; (II) added concentration dependently to 300 nM racemate of (VI)
  ATP synthesis inhibition in combination with racemate of Formula (VI) (BDQ1): almost full inhibition
F-ATP synthase [3]; addition of 3×IC50 (270 nM) of (II) to BDQ
  ATP synthesis inhibition in combination with BDQ (Formula (VII)): completely inhibited
F-ATP synthase [3]; addition of 3×IC50 (270 nM) of (II) to racemate of (VI)
  ATP synthesis inhibition in combination with racemate of Formula (VI) (BDQ1): completely inhibited

## COc1cc(C(O)(CCN(C)C)C(c2cc3cc(Br)ccc3nc2OC)c2ccnc(OC)c2OC)cc(OC)n1 (racemic) [Formula (V), reference compound]
F-ATP synthase [3]; with 300 nM of compound of Formula (II) versus racemate alone, FIG. 3
  potency of racemate of Formula (V) in ATP synthesis inhibition in presence of (II): increases the potency

## CCNc1cc(C)nc(Nc2ccc3[nH]c(-c4ccccc4)nc3c2)n1
F-ATP synthase [2]; [4]
  IC50: 0.28 µM

## CCNc1cc(C)nc(Nc2ccc3nc(-c4cccc(Cl)c4)[nH]c3c2)n1 [Formula (III), N^2-(2-(3-Chlorophenyl)-1H-benzo[d]imidazol-5-yl)-N^4-ethyl-6-methylpyrimidine-2,4-diamine]
F-ATP synthase [2]; [4]
  IC50: 0.29 µM
